From paper PMC12136788
Some of the results follow.

T1: UNK ZnF1-3 (human, UniProt Q9C0B0 31-174)
T1 sequence: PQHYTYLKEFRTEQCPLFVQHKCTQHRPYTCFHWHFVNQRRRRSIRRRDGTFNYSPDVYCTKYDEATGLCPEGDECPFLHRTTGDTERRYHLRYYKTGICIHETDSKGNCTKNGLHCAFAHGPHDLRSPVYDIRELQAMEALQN

B1: chr1:60041781:60041782:+_ENSMUSG00000041040_ENSMUST00000036540|mus_hu|mus_mus_mus_hu_False|1_48 (ssRNA)
RNA: GGGAGUUCUACAGUCCGACGAUCAAGUUUACAAUAGUAAAGUAAAUGCAGUAGUGGCAAAUUUUCUUUUAUUUUCCUUCACAAAAGAAAACCUCAGUAACCCAGUCCUAGUCUUGGACAUAGUGAAAGCUAUAAAUGCCACUGCAACAGAGGAUUGAGCAUCA
B2: 86333000_86333120_218_5pUTR_ENSG00000068654_ENST00000263857|human|control|control (ssRNA)
RNA: GGGAGUUCUACAGUCCGACGAUCCGUGCGCUUGCGCGCGGAAGCGGUCGCAGGAACGACAUUUACGUGGAUGAGAUCACUUCUACAUGGGGGGGGAACAAAUAGUUGUACGACUCUCUGCUCGCUCUUUUGUUUUGAAAACAACAACAGAGGAUUGAGCAUCA
B3: chr16:20679341:20679342:+_ENSMUSG00000045983_ENSMUST00000044783|mus_hu|FALSE|FALSE (ssRNA)
RNA: GGGAGUUCUACAGUCCGACGAUCGACUGGGGAUGGUGAUGGGGUCGGAGAAGGCGACGAAGGCUGGGAUUCUGAAGGGCUAUGCUCUGGGCCAGGCAGCCCUGGCCGGUCAGCAAUGAUUGCUCCCUGUGACCGGUCAUCUGGCAACAGAGGAUUGAGCAUCA
B4: chr7:149068622:149068623:-_ENSMUSG00000025139_ENSMUST00000001950|mus_hu|mus_mus_mus_hu_False|8_38 (ssRNA)
RNA: GGGAGUUCUACAGUCCGACGAUCGUGAGGCCUCUGAGUGUGGCUUGUGGUCUGUCCUGGGUUAGAGUUGUUAAUAUCACGGAACAUACCAUCUAGAGAGGUUCUGCCCCGCCUGACACCUUCAUUCGCAAGAGGGCAGAAAUCCAACAGAGGAUUGAGCAUCA
B5: chr2:48026839:48026840:+_ENSG00000116062_ENST00000540021|hu_hu|FALSE|FALSE (ssRNA)
RNA: GGGAGUUCUACAGUCCGACGAUCAUAGUGUGCCACUAGAGUCCUAAAUCUCGAACAAUGGCGAUCAUCUGAAAACUGACCUAUGAAAAACUUUCCCAGUGAAGUAUCAACAAAGCACACACCAUAUGCACGAGUAUGGCCAGACAACAGAGGAUUGAGCAUCA
B6: chr1:46159212:46159213:+_ENSG00000159596_ENST00000372025|hu_mus|hu_hu_hu_mus_True|18_48 (ssRNA)
RNA: GGGAGUUCUACAGUCCGACGAUCUCUGAUCCCUCCCAAGAAAGCUAGGAAACCGGCUCCAUAAGCCAUCUGAGUGAAAGCUAGGACGGGAAUAUAAGACUUUGUUAUUACCAUGAGCAGUGGUGGAGCAGUAAAGGGGAUUAACAACAGAGGAUUGAGCAUCA
B7: 34923286_34923406_1837_CDS_ENSG00000159140_ENST00000381679|human|control|control (ssRNA)
RNA: GGGAGUUCUACAGUCCGACGAUCCUGCCCCAAAAGCUCCAGUGCUCCAGCUGCCCCAGACUGCCCCGAGAACUCCAGUGCCCCAGCUGCCAUGAGCGGCCCAGGCAACUCUAGUGCCCCAGUUGCCACAGGCUGCCCCGACAACAACAGAGGAUUGAGCAUCA
B8: chr2:235962676:235962677:+_ENSG00000130147_ENST00000392011|hu_mus|FALSE|FALSE (ssRNA)
RNA: GGGAGUUCUACAGUCCGACGAUCUCUUCUGUUUAAAAAAGUGAUUUUAAAUUUAAACGUACAUUUUCAACAAAUAGAAAGCAACACAAUUGGCAACUGGAAGUAGAAAGCCCCUGGGACCUGCCCCUGGAUAGAGGGGAGGGGCAACAGAGGAUUGAGCAUCA
B9: chr22:32879901:32879902:+_ENSG00000100225_ENST00000397426|hu_mus|hu_hu_hu_mus_False|1_28 (ssRNA)
RNA: GGGAGUUCUACAGUCCGACGAUCCUCUUCCAUACUCAUGGCAUCCUGAAUUGACUCAGCUUCAACAUUUUGACUAGGCCCUUCCAUACUGUCAUCAGUCCAGGCAUCAGACUGGGCGGCCUGUCCUUGGGAUGAAUCACUUGGCAACAGAGGAUUGAGCAUCA
B10: chr5:65459698:65459699:+_ENSG00000153914_ENST00000334121|hu_mus|FALSE|FALSE (ssRNA)
RNA: GGGAGUUCUACAGUCCGACGAUCCAUUACUUCUUCUAACUCCUUAGCUGCAGCCUGAGGUGUCAUCUCAGGAGGUUUUACUAUUGCAUUGUUGGAGUGAUUUAUUUUCAGUGGCCUGUCUCCAAACAUAACUCCAUUAAAAGCCAACAGAGGAUUGAGCAUCA
B11: chr18:56819859:56819860:+_ENSG00000166562_ENST00000588875|hu_mus|hu_hu_hu_mus_True|8_18 (ssRNA)
RNA: GGGAGUUCUACAGUCCGACGAUCAACCUUGAUUACUCUGUGAACUAUCGGAAUGUCUCUUCCUUCAACCUUAAAAACAACUAUUUCACCAGCUCUGAUGGGGUCCUCCCGGAAAUUUGUGAGGAACAGGAGGUCUCCUCUGUGCAACAGAGGAUUGAGCAUCA
B12: chr2:9570881:9570882:+_ENSG00000119203_ENST00000238112|hu_mus|hu_hu_hu_mus_False|8_8 (ssRNA)
RNA: GGGAGUUCUACAGUCCGACGAUCACUUGUCUUCUGAAGGAACCAGGGCAGGGCUCCACAGUGAUCCAAAUGGAAAUGACUGAUCAACAGAAGGUCGAUCUCAGCUGGGUCGAUAAGGUCAAUGUAAGGAAGAGCAUCCAUUCCCAACAGAGGAUUGAGCAUCA
B13: 78600971_78602308_1345_CDS_ENSG00000149256_ENST00000278550|human|control|control (ssRNA)
RNA: GGGAGUUCUACAGUCCGACGAUCCGGAGGAGAGUACACUGUGCUGGACGUCAGUGGGUACCCUGGUGAUGUGGUGCAGAAGAGCGGGGAGGUGCCUCCAGGCUUGAAGAGGAAGUGCCCGUCACUGUAAGCCCCAUCAUGGCGCAACAGAGGAUUGAGCAUCA
B14: chr1:118462952:118462953:-_ENSG00000196505_ENST00000369442|hu_hu|motif|central (ssRNA)
RNA: GGGAGUUCUACAGUCCGACGAUCGGCAUGAGUCACCCCAGCUUGGUAGUGUAUCCACAUCCACAAACUGGGAAGGUGCACCGGAGGGAUCCAUGGAAUGGGAACUUUGAUUUGUCUUUUCCCAAAAUCCUCAGCAAUUCAAUACAACAGAGGAUUGAGCAUCA
B15: chr2:216981417:216981418:+_ENSG00000079246_ENST00000392132|hu_hu|hu_hu_hu_mus_True|58_98 (ssRNA)
RNA: GGGAGUUCUACAGUCCGACGAUCCUGAUACUGGUCCCCACCAGAAAGGGCAUUAUCAGUGCCAUCUGUGCCAUAGAGGACUAAAGCAAUCUCAUCUUUGCUCUCCGAAAAUACCUGUCGUUGGACAAACAUAGUCAUCACUUUCAACAGAGGAUUGAGCAUCA
B16: chr4:175180916:175180917:-_ENSG00000164117_ENST00000503293|hu_hu|motif|central (ssRNA)
RNA: GGGAGUUCUACAGUCCGACGAUCAUUAAAGGUGAGGCUGCCUUCAUCCAGCUGCAUAUACAAUUUUCUAAAAGAAAAUCCGGAAGGUGGGUUCUUAUUGUAUAUGGAACAGUGACCCCAAGUGGAUUUGCACAACCCUUGCCACAACAGAGGAUUGAGCAUCA
B17: chr15:80414081:80414082:+_ENSG00000086666_ENST00000558494|hu_hu|FALSE|FALSE (ssRNA)
RNA: GGGAGUUCUACAGUCCGACGAUCUGGUAAAGAUUCAGACAGACUACUGACAGAGGUUGCAGGUGGGCUUAUUCUACCAUUACUACUAUUCUGUCUUUGAAGAUGUUCUUUAUAGCAUACUGAACACAUGCCAUUUGUACGAGGCAACAGAGGAUUGAGCAUCA
B18: chr11:77333689:77333690:-_ENSG00000074201_ENST00000263309|hu_mus|FALSE|FALSE (ssRNA)
RNA: GGGAGUUCUACAGUCCGACGAUCCUCCAACGUGGCUUGCCCUUCCGCUGUUAAAUGGGAUAGUCCUUCUUCAUAGGUAUAAAAUGUAGGGAUGUCCCCUUGUCCUUGUUCAUGUGCCUCCACAUCAUACUCCUCUCCAUCAUACAACAGAGGAUUGAGCAUCA
B19: chr5:71494600:71494601:+_ENSG00000131711_ENST00000296755|hu_hu|motif|central (ssRNA)
RNA: GGGAGUUCUACAGUCCGACGAUCCAUUGUAUCGAAUAACACUGAGGCACGGAAGCCAUAGGGCUCUGCGGAUGCUGCAUCGGUUGGUGGAGAAGAGGAACUGUGGCAAGUUGCUGUUUUCUCUUUGACUGCAGAGGUAGAAUCCAACAGAGGAUUGAGCAUCA
B20: 35991445_35991821_4851_CDS_ENSMUSG00000061607_ENSMUST00000082337|mouse|control|control (ssRNA)
RNA: GGGAGUUCUACAGUCCGACGAUCGAAGCAACCAGCCUUUCGGGACUGGUACAGCCAGUUCAGGGACAGGAUGGGAAUUCCCUUCCCCAGGGCACACAAGAACUUGACUGUCCUGCGGAUGCGAUCAGUAACUAAGUGGGAGGCCAACAGAGGAUUGAGCAUCA
B21: chr4:4237396:4237397:-_ENSG00000132406_ENST00000382753|hu_mus|FALSE|FALSE (ssRNA)
RNA: GGGAGUUCUACAGUCCGACGAUCAAAGAACAUAAGUUGAAAAAUGUUAAAAACCCAAUAACUUAUAUAAUGAUAAAACCCAGAGUAACAAGAAACCAUAAGAUACUUCCGUUUGGUCCUCUUCUUAAAAAACUAUGACAAAUACAACAGAGGAUUGAGCAUCA
B22: 2809365_2809651_1311_CDS_ENSG00000167978_ENST00000301740|human|control|control (ssRNA)
RNA: GGGAGUUCUACAGUCCGACGAUCAGUAUCGGAGGAGGAAGCAGAGUCAGCAGAAGUUGAACGGUGGGCCCGGCGGCUCUUGGGGGCUGGUGUUGUACUUCGAGACCGCUUUCGCUUUUUGUCCUUAGAUUUACGUUUGCUCUUCAACAGAGGAUUGAGCAUCA

Molecular target: T1, UNK ZnF1-3
Assay: nsRBNS (natural sequence RNA bind-n-seq); RBNS binding buffer (assumed for nsRBNS): 25 mM Tris pH 7.5, 150 mM KCl, 3 mM MgCl2, 0.01% Triton X-100, 500 ug/ml BSA, 20 U/ml SUPERase-In, 4 C; UNK is unkempt and MSI1 is Musashi-1; names of the RNAs are library labels; protein concentration not given here; high values mean tight binding

Binder | binding signal
B1 | 0.777 enrichment R
B2 | 1.15 enrichment R
B3 | 0.891 enrichment R
B4 | 0.795 enrichment R
B5 | 1.7 enrichment R
B6 | 2.03 enrichment R
B7 | 0.989 enrichment R
B8 | 0.707 enrichment R
B9 | 0.984 enrichment R
B10 | 0.871 enrichment R
B11 | 0.757 enrichment R
B12 | 1.65 enrichment R
B13 | 1.22 enrichment R
B14 | 0.956 enrichment R
B15 | 1.08 enrichment R
B16 | 1.81 enrichment R
B17 | 0.894 enrichment R
B18 | 0.976 enrichment R
B19 | 1.29 enrichment R
B20 | 1.25 enrichment R
B21 | 2.22 enrichment R
B22 | 1.46 enrichment R
